Here are results for 167 variants from the RNAGym collection of RNA variant scans (doi:10.7554/elife.90254).

The source gives no read counts; variants with many changes may rest on few reads.

B1: OR4K15 (parent)
chain: GUUAACGGUCAUAGGCCAUGGAAACUAGGAGCACCAUUUCGCUGCCAGUGAAGAAAUGAACAAAGAAAAUCUGGGCCAGGCAGGCAUCAAAAGAAAUAGUCUUGCGCUCAACCAGAAAGUCUGUAAUCAUUUUAAGGGUA

This data set covers variants of B1. Put plainly: self-cleavage, relative activity (ratio to wild type); higher = more cleavage; in vitro, sequencing; the parent is a self-cleaving ribozyme.
For the variant U2C A78G A129G, the self-cleavage is 0.24. For U2C U87C A98G A117G, the self-cleavage amounted to 0.71. For the variant U3A U9A A68G U108C U120A, the self-cleavage came to 0. Consider U2C A78G A111U, for which the self-cleavage stood at 0.02.

Turning to A4G U9C A22G A59G, the self-cleavage turned out to be 1.86. As for U3C A126G U139C, the self-cleavage came out at 0.88. As to U3G U26C U102C, the self-cleavage was found to be 1.52. As to U3A A5G A96G, the self-cleavage worked out at 1.24. Turning to U2C U26C A67U A68G, the self-cleavage worked out at 1.35. Take U2C U3A U9C A47G: the self-cleavage was determined as 0.78.

For U3A A4G A5G A52G, the self-cleavage worked out at 0.56. With U3C A23G A94G the figure was 2.37; with U3C A11G A52U U87C, 1.18. On to U3A G20U G29A A47G A52G A92G A94U A98U, for which the self-cleavage stood at 1.76. In the case of U3A A18G A68G, the self-cleavage is 1.57.

On to A4G A5G U26C, for which the self-cleavage worked out at 0.62.

Consider U3C U38C A55C A66G U70C U102A U133C, for which the self-cleavage was 0.16. Turning to U2C U43G U87C, the self-cleavage worked out at 1.72. With U3C U49C U108C, the self-cleavage is 0.02. With A4G U38C A68G U87C A118U the figure was 1.03. Consider U3C U108A A118G, for which the self-cleavage turned out to be 0.02. With U3C U9A A64G the figure was 0.94; with U2C U38C A95U, 1.02; with U3C A23G A47G, 0.71.

Consider U2C A68G A118G U130C, for which the self-cleavage worked out at 0.08.

Take U3A A92G U122A: the self-cleavage was 0.86.

Turning to U3A A11U A30G A94G A117U, the self-cleavage came out at 0.64. Under U3C U49C A96U stands 1.2; under U3C A22U U120G, 1.61; under A4U A82G U120A U139C, 0.5.

Turning to U3C U43A A68G A91G, the self-cleavage was determined as 1.5. Turning to U3G A18G U19C U43G A60G A91G A117G, the self-cleavage stood at 1.26.

For A4G A66G A110G, the self-cleavage turned out to be 0.61. With U2C U9C A59U A98G U132A the figure was 0.16; with U2C U49A A59G A90G A91U, 1.08. Under U2C U43C A78G stands 0.3; under A4G A52G A126G, 0.57; under A4C A23G U37C, 1.64. Take U2C U87C U102C: the self-cleavage worked out at 1.2. Turning to A4G A62G A117U U122C, the self-cleavage was found to be 0.3. As to U2C C17U U43C A60G A67G A89U U131C, the self-cleavage was 0.89. In the case of A4G A51G A96G U108A A129C, the self-cleavage was found to be 0.1.

Consider A4U A52U A55U, for which the self-cleavage is 0.53. As to U2C A82G A116G, the self-cleavage was 0.29. Take A4G A23G A55U A62G A118C: the self-cleavage was 0.54. In the case of U3C A78U A86G A96G, the self-cleavage is 0.12. With A4G G7U A67G U103C U124C A135U the figure was 0.43; with A4G A92G A126G, 1.08; with U3C A78G U108A, 0.03. For the variant U2C U19A U130C, the self-cleavage was found to be 1.28. For the variant U3C A33G A117G, the self-cleavage was 1.38. Under A4G A66G U122C stands 0.84; under U2C U39C A60G A111G U139A, 0.02. As for U2C A86U A126G, the self-cleavage turned out to be 0.37. As for U2G U9C A23G A95G U100C, the self-cleavage was 2.1.

Consider U3C C34U A51G A60G A116G, for which the self-cleavage turned out to be 0.61.

Consider U3C U12C U37C A62G, for which the self-cleavage stood at 0.67. As for U2C A90G A110G, the self-cleavage was determined as 0.14. With U3C U19C A36U A59G the figure was 0.58.

For U2C U100C C105U A111U U132C, the self-cleavage was determined as 0.02.

In the case of U3A A22G U39C A67G U100C, the self-cleavage is 1.05.

U2C U3G U122C U132C: the self-cleavage came to 0.47. Take U2C U57A A96G A117G: the self-cleavage was determined as 1.4. As to U2C U9A A60G, the self-cleavage was found to be 0.99.

On to U2G A11U A22G U103C C109A, for which the self-cleavage is 0.12.

With U2C C42U C46U U49C U132C, the self-cleavage is 0.48. Consider U3C A18U G29A A63G U87C, for which the self-cleavage turned out to be 0.54.

On to U3C A30G A60G U72A U97A U102A, for which the self-cleavage was 0.11. Take U3C A11G A129G: the self-cleavage was 1.39. For U3A A60G A95G, the self-cleavage was found to be 1.05. With U2G A5G A18G A51U U70C G83U U108C A118G the figure was 0.03; with U2C U100C A118G, 1.45. For U2C A91G A94C U108C A111G, the self-cleavage worked out at 0.03. Under U2C A78G A118G U130C stands 0.09; under U2C C42A U103G, 0.01; under U2C U43C A94G, 1.35. For A4G A47U U131C, the self-cleavage came to 0.3. Under U2C U38C U120C stands 0.22; under A4G A62G G75A, 0.26.

Consider U2C U39A A82G A134G, for which the self-cleavage worked out at 0.29. For U3A C17U C35U, the self-cleavage turned out to be 1.18. In the case of A4G A55G U102A, the self-cleavage came to 0.9. Consider U2C A110G A118G A125U, for which the self-cleavage was 0.17. Consider U3C A66G A89U A110G, for which the self-cleavage worked out at 0.34. On to A4G A23C A47G A55C A56G A60G A63U A66C A117G, for which the self-cleavage worked out at 0. As to U2C U26C U57C A111U, the self-cleavage turned out to be 0.03. On to U2C A92G U97C, for which the self-cleavage was found to be 1.3. For U3C A11G U26A, the self-cleavage is 0.7. With U2C U87C U131C, the self-cleavage was 2.17. In the case of U3C A18U A63U, the self-cleavage turned out to be 1.17. With U3A G44A A55G A68G the figure was 0.26; with U3C U9G C105U, 0.3; with U3C U37C A96U, 1.27.

For the variant U2C U3C A60G G83A, the self-cleavage was found to be 1.03. On to A4G A13U A94G, for which the self-cleavage came out at 0.59. Regarding A4G U43A A92G, the self-cleavage worked out at 2.01. As for U3A G93U U103C A118U, the self-cleavage came to 0.68. As to U2C A78U A117G, the self-cleavage turned out to be 0.28.

Consider U2C U127G A134G, for which the self-cleavage is 1.36. In the case of U2C A111G A117C A125U, the self-cleavage stood at 0. Take U3C U26C A47U A118G: the self-cleavage is 0.64.

With A4G A23G U43C A96U, the self-cleavage came out at 1.33. For U2C U43C A96G U122A, the self-cleavage is 1.08.

As for U2C G53U A67U, the self-cleavage was found to be 1.85.

Regarding U3C G48A U108C, the self-cleavage is 0.02. As to A4C G44A A68G A135U, the self-cleavage is 1.09. Take U2C U3C A60G A111G: the self-cleavage came out at 0.07. Take U3C A22U A33G A111G: the self-cleavage was 0.08. With U2C U19A A52G G136A the figure was 1.24. Turning to A4G A33G A36U, the self-cleavage came to 1.12. Under U2C G58U A126U stands 0.62; under U3C U9C C42U, 1.2. On to A4U A62U C101U, for which the self-cleavage was 0.71. With U3C A11G A36U A62G A90G, the self-cleavage was 0.18. As to U3C A52G A96G A98G, the self-cleavage came to 0.49. Take U3C U37C A68G: the self-cleavage was 0.66. Take A4G A68G A69G A91U U133C: the self-cleavage was 1.82. For A4G A52G A67G U108A, the self-cleavage was determined as 0.15. As for U2C U49C A54C A68U A91G A96G, the self-cleavage is 0.94. On to U2C U19C A23G, for which the self-cleavage worked out at 1.04. For A4G A23U U97A U102C U122A, the self-cleavage was found to be 0.58. With U2G A63G A90G the figure was 1.26; with A4G U38C U87C A94U U100A U103G, 0.03; with U3A U43C A68G, 1.06.

Turning to U2C U39C A56G A62G G80A, the self-cleavage was 0.16. A4G A22G U127C: the self-cleavage was 0.62.

For the variant U3C A95G A110C U127C, the self-cleavage was 0.28. On to U2G U100C A116G, for which the self-cleavage was found to be 1.94. As for U3C U37C A54G A60G, the self-cleavage stood at 2. As for A4G A24G U43C A51G U72A, the self-cleavage was 0.29. Take U3A U57A A64G: the self-cleavage stood at 1.24. As for U3C A22G A24G A116G, the self-cleavage is 1.17. For U2C U9C A22G A67G A68G U70C A135G, the self-cleavage stood at 0.91. For the variant A4U A33U A126G, the self-cleavage was determined as 1.34. In the case of U2C A69G A94G U120G, the self-cleavage is 0.83. With U2C A67G U70A, the self-cleavage was determined as 1.26. Take A4G A94G A114G: the self-cleavage turned out to be 1.21. Turning to U2C C6U A36U C42A A56G, the self-cleavage was found to be 0.56. As for U3C A60U A126G, the self-cleavage turned out to be 1.11.

For U2C U19G A67G, the self-cleavage was 0.87.

Consider U2G A36U U49C A60G, for which the self-cleavage was found to be 0.47.

With U3A A23G A24U U49C, the self-cleavage came to 0.66. With U2C U122A G123A A135C the figure was 1.02; with A4G A60G A89G, 1.24; with U3C U39G A92G, 1.8.

For the variant A4G U103A A116G, the self-cleavage amounted to 0.4.

As to U3C U37C A110G U139G, the self-cleavage is 0.2. As to U2C A92G U130C U132C, the self-cleavage came to 1.01. With U3C A67G G75C A92G A96G U127C the figure was 0.05.

Regarding U3C U70A G137A, the self-cleavage was 1.76.

On to U3C U37A U49C A63U A89G, for which the self-cleavage worked out at 0.44. As for A4U U102C A117U, the self-cleavage came to 1.05. With U2C A86G C101A the figure was 0.17.

For U3C U43C A60G, the self-cleavage was 1.61. Regarding U3C A18G A86G A110G U124C, the self-cleavage was determined as 0.07.

As to A4G C6U U12C A51G A59G U103C, the self-cleavage was determined as 1.14. On to U2C G14A U70C, for which the self-cleavage came to 0.79. For U2C U38C A117G, the self-cleavage was determined as 0.94.

Take U2C A110G U122C U124C: the self-cleavage came out at 0.19. Consider A4U A60G A86G, for which the self-cleavage amounted to 1.32.

As to U3C C34U U43C A52G A59U A64G U70C, the self-cleavage is 0.61.

Regarding U2C U9A A52G U70C, the self-cleavage is 0.65. In the case of U2C U19C A86G U103A, the self-cleavage was determined as 0. Under U2C G31A A64C A94G stands 1. U2C U103C A116G: the self-cleavage was 0.14.

Consider U3C A90G A140G, for which the self-cleavage stood at 0.96. On to U2C U37C A67U A114U, for which the self-cleavage was determined as 0.56.
